Experimental data taken from PubChem BioAssay AID1030 (National Center for Advancing Translational Sciences (NCATS), 2008).
Screen size: about 220,000 compounds; about 16,000 (7.3%) were called active. Inconclusive results, whose numbers are uncertain, are shown with a selection of clear calls. The call rests on the fitted dose curve; in most records, active means well fitted inhibition curve with a large enough effect (not every such curve was filed as active); inconclusive means small, poorly fitted or top-dose-only effect, or another doubt; inactive means no such curve, though single readings can be large or run the other way. Potencies beside an inconclusive call are fits to weak or partial responses and may not hold up. Square brackets hold non-standard residues; d marks the D form. Peptide text beside a SMILES is read from it. * marks the point of attachment. ξ: configuration not given here. Cbz = O=C(OCc1ccccc1)*; ξK = NCCCCC(N)C(=O)O

Molecular target: Aldehyde dehydrogenase 1A1 (Homo sapiens) (UniProt P00352)
Chain of UniProt P00352 (P00352 whole entry, looked up): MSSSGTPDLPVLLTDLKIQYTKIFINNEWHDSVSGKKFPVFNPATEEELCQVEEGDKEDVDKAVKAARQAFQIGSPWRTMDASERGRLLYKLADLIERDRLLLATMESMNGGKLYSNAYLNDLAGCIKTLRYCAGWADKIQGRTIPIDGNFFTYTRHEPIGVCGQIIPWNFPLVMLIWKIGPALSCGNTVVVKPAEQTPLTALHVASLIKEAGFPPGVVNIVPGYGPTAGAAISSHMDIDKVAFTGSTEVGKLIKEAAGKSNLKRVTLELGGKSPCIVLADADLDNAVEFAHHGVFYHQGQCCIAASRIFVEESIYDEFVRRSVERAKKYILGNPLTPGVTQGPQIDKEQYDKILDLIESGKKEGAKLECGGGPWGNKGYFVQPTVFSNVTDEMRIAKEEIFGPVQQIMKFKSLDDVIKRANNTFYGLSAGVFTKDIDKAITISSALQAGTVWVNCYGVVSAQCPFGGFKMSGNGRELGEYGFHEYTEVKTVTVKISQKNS
Experiment: qHTS Assay for Inhibitors of Aldehyde Dehydrogenase 1 (ALDH1A1)
Settings: Purified ALDH1A1, NADH fluorescence, propionaldehyde substrate; series mostly up to 75.3 µM
Potency means the concentration at half of the fitted maximal effect; tags describe the fitted curve by direction and shape.

Potency, active:
O=C1C=C(c2cccs2)CC(c2cccs2)C1n1cnc([N+](=O)[O-])c1 (stereo not given) 28.2 µM
COc1ccc(C(NC(=O)/C=C/c2ccco2)c2ccc(OC)c(OC)c2)cc1 (stereo not given) 20 µM
Cc1ccc(S(=O)(=O)N(C(=O)c2ccncc2)c2ccc(OC(=O)c3ccncc3)c3ccccc23)c(C)c1 7.94 µM
CC(C)Cn1c(N)c(C(=O)COC(=O)c2ccc(O)cc2)c(=O)n(C)c1=O 7.94 µM
COC(=O)C(CCCCNC(=O)OCc1ccccc1)NC(=O)CN (stereo not given) (H-Gly-[ξK](Cbz)-OMe) 28.2 µM
O=C(c1ccccc1)c1cc(Cl)ccc1N1C(=O)C=CC1=O 10 µM

Potency, inactive:
O=C(N[C@@H](Cc1ccccc1)C(=O)O)c1ccccc1
O=C(N/N=C/c1cccc(O)c1)c1cc(-c2ccc3c(c2)OCO3)n[nH]1
C/C(NCCN1CCOCC1)=C(\C#N)C(N)=O
COc1ccc(CNc2ncncc2-c2ccc(C(=O)N(C)C)cc2)c(OC)c1
CC(C)CCNC(=O)CCn1c(=S)oc2ccccc21
CCc1nnc(NC(=O)C2CCCN2C(=O)Nc2ccccc2)s1 (stereo not given)
CCNc1ccc(C(=O)OCC(=O)N(Cc2ccccc2)C(C)(C)C)cc1[N+](=O)[O-]
Cc1cnc(C(=O)Nc2ccc(-n3cnnn3)cc2)cn1
CCCCN1C(=O)NC(NC(=O)c2ccco2)(C(F)(F)F)C1=O (stereo not given)
CC1CCN(S(=O)(=O)c2ccc(S(=O)(=O)NCC(=O)C(C)(C)C)cc2)CC1
COC(=O)C1=C(C)NC(=O)/C1=C\c1cc(C)n(-c2ccc(F)cc2)c1C
CCN(CC)c1ccc(/C=C/c2nc3ccccc3s2)cc1
Cc1noc(C)c1C(=O)N1CCC(C(=O)c2ccc(F)cc2F)CC1

Potency, inconclusive:
Cc1ccc(OCc2cc(C(=O)Nc3ccccc3)oc2C)cc1 31.6 µM [inhibitor, single point]
CCCCNc1nc(C)nc2c1nc(-c1ccccc1)n2CC1CCCN1CC (stereo not given) 14.1 µM [inhibitor, partial curve]
O=C(Nc1ccc(-c2nc3ncccc3o2)cc1)c1ccco1 39.8 µM [inhibitor, single point]
Cc1cc(-c2nnc3n2CCCCC3)c(C)n1-c1ccccc1 35.5 µM [inhibitor, single point]
CC(/C=C/c1ccc2c(c1)OCO2)=N/NC(=O)C1COc2ccccc2O1 (stereo not given) 39.8 µM [inhibitor, single point]
CC1=C(C(=O)Nc2cc(C)ccn2)C(c2cnn(C)c2)C2=C(CC(c3ccccc3)CC2=O)N1 (stereo not given) 25.1 µM [inhibitor, partial curve]
CCN(CC)S(=O)(=O)c1cccc(-c2cn3cccnc3n2)c1 20 µM [inhibitor, partial curve]
C#CCOCCOCCOCCNc1nc(N2CCN(C(=O)[C@H](Cc3cc4ccccc4[nH]3)n3cc([C@@H](N)CC(C)C)nn3)CC2)nc(N2CCN(C(=O)[C@H](Cc3cc4ccccc4[nH]3)n3cc([C@@H](N)CC(C)C)nn3)CC2)n1 20 µM [inhibitor, single point]
Cc1cc(C)c(C(=O)O)c(Cl)n1 39.8 µM [inhibitor, single point]
COC(=O)CNC(=S)NC(=O)c1ccc(C(C)(C)C)cc1 37.7 µM [inhibitor, single point]
Cc1cc(C)n(Cc2ccccc2F)c(=O)c1C#N 31.6 µM [inhibitor, single point]
O=C(CCCC(=O)N(CC(=O)NC1CCCCC1)Cc1ccc2c(c1)OCO2)Nc1ccccn1 39.8 µM [inhibitor, single point]
O=C(CN1CCSCC1)N/N=C/c1ccc(F)c(F)c1 12.6 µM [inhibitor, partial curve]
CSc1nsc(/C=C/Nc2ccc(F)cc2)c1C#N 28.2 µM [inhibitor, single point]
CC(C)CCn1c(=O)c2ccccc2c2ccccc2c1=O 20 µM [inhibitor, single point]
CN(CC(=O)Nc1ccc(Cl)c(C(F)(F)F)c1)C(=O)/C=C/c1ccco1 39.8 µM [inhibitor, single point]
COc1ccc(C)cc1NC(=O)c1cnc2scc(C)n2c1=O 12.6 µM [inhibitor, partial curve]
NC(=O)C1CCN(C(=O)CN2CCc3ccccc32)CC1 35.5 µM [inhibitor, single point]
N#Cc1cc(S(=O)(=O)c2ccc(Cl)cc2)c(N)[nH]c1=O 39.8 µM [inhibitor, single point]
CN(C)CCCNc1oc(-c2cccc(Cl)c2)nc1C#N 25.1 µM [inhibitor, partial curve]
O=C(/C=C/c1cccs1)NC(=S)NNC(=O)Cc1cccs1 22.4 µM [inhibitor, single point]
COC(=O)c1[nH]c2cc(OC)ccc2c1NC(=O)CCN1CCN(Cc2ccc3c(c2)OCO3)CC1 39.8 µM [inhibitor, single point]
COc1cccc(C(=O)N(Cc2ccc3c(c2)OCO3)Cc2nc3ccccc3c(=O)[nH]2)c1 31.6 µM [inhibitor, partial curve]
CCCCCC1(C)NC(=S)N(c2ccccc2)N1 (stereo not given) 35.5 µM [inhibitor, single point]
COc1ccc(-c2c(O)c3c(OC)c4c(cc3oc2=O)OC(C)(C)C=C4)cc1 22.4 µM [inhibitor, partial curve, poor fit]
COc1ccc(C=Nc2cccc3c(=O)[nH][nH]c(=O)c23)c2ccccc12 10 µM [inhibitor, partial curve]
